{"source": "PubChem BioAssay AID2546", "about": "(National Center for Advancing Translational Sciences (NCATS), 2010)", "note": "In all, about 310,000 compounds went through this assay and about 11,000 (3.5%) were called active. Inconclusive means that the source gave no clear call. Such entries were picked first, then a sample of the others. Calls follow the shape of the dose curve; as a rule, active = well fitted inhibition curve with a large enough effect; inconclusive = small, poorly fitted or top-dose-only effect, or effect the other way; inactive = flat fitted curve, though single readings scatter. Potencies of inconclusive entries are left out as doubtful fits. % is scaled to controls: 0 for no effect and ±100 for the full control effect; potency is read from the fitted curve at half-maximal effect; tags tell the direction and shape of the fitted curve.", "data": [{"test": "VP16 counterscreen qHTS for inhibitors of ROR gamma transcriptional activity;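 also: Gal4-VP16 expression switched on by copper sulfate through the metallothionein promoter; nearly all actives have a fitted effect of over 50% in size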", "conditions": "Drosophila S2 Gal4-VP16 UAS-luciferase, luminescence, 20 h; activity, negative = inhibition: at 53.6 µM (top of the series)", "values": [{"smiles": "CC1=C(/C=C/C(C)=C/C=C/C(C)=C/C=O)C(C)(C)CCC1", "Potency": "inconclusive [inhibitor, single point]"}, {"smiles": "Cc1cc(/C=C(\\C#N)C(=O)NCc2ccco2)c(C)n1C1CCCC1", "Potency": "inconclusive [inhibitor, single point]"}, {"smiles": "CCOC(=O)C(C)On1c(-n2nc(C)cc2C)nc2ccccc2c1=O", "note": "(stereo not given)", "Potency": "active: 6.31 µM"}, {"smiles": "CCN(CC)CCOC(=O)c1ccc(N/C=C(/C#N)c2nc(-c3ccc4c(c3)OCO4)cs2)cc1", "activity, negative = inhibition": "inactive: -4.14%"}, {"smiles": "CC1CCCCN1S(=O)(=O)c1ccc(S(=O)(=O)N(CC(=O)Nc2ccccc2)Cc2cccs2)cc1", "note": "(stereo not given)", "Potency": "inconclusive [inhibitor, single point]"}, {"smiles": "O=C(Nc1ccnn1C1CCN(Cc2cccc(OCCO)c2)CC1)C1CC1", "activity, negative = inhibition": "inactive: 0.495%"}, {"smiles": "COc1ccc(NC(=O)c2cccc(N3C(=O)C4C5C=CC(C5)C4C3=O)c2)cc1Cl", "note": "(stereo not given)", "Potency": "inconclusive [inhibitor, single point]"}, {"smiles": "Fc1ccccc1NC(=S)NNc1ncc(C(F)(F)F)cc1Cl", "Potency": "active: 15.8 µM"}, {"smiles": "O=C1c2cccc3c([N+](=O)[O-])ccc(c23)C(=O)N1c1ccc(Cl)cn1", "Potency": "active: 7.94 µM"}, {"smiles": "Fc1ccc(-c2nnc(-c3ccc(Cl)cc3)o2)cc1", "activity, negative = inhibition": "inactive: 11.6%"}, {"smiles": "CCc1cc2c(NCc3ccco3)ncnc2s1", "Potency": "inconclusive [inhibitor, single point]"}, {"smiles": "Cc1cc(C(=O)N=Nc2c(O)n(C(C)C)c3ccccc23)n[nH]1", "Potency": "inconclusive [inhibitor, single point]"}, {"smiles": "Cc1nccn1CCOc1ccccc1Cl", "activity, negative = inhibition": "inactive: -7.34%"}, {"smiles": "CC(C)(C)c1ccc(C(=O)C2CCCN(C(=O)c3ccccn3)C2)cc1", "note": "(stereo not given)", "Potency": "active: 14.1 µM"}, {"smiles": "CN(C)C(=O)COc1ccc(C(=O)/C=C/c2cccnc2)cc1", "Potency": "inconclusive [inhibitor, single point]"}, {"smiles": "CCOc1ccc(Br)cc1CSC(=N)N", "Potency": "inconclusive [inhibitor, single point]"}, {"smiles": "CC(=O)CSc1ccc(-c2nc3ccccc3[nH]2)cn1", "Potency": "active: 11.2 µM"}, {"smiles": "CC(C)c1nc(NCCO)c(C#N)c2c1CCCC2", "Potency": "inconclusive [inhibitor, single point]"}, {"smiles": "Cn1cnnc1SCc1ccc(-c2ccc(Br)cc2)o1", "Potency": "inconclusive [inhibitor, single point]"}, {"smiles": "O=C(CSc1ccc(Cl)cc1)N1CCN(c2ncc(C(F)(F)F)cc2Cl)CC1", "Potency": "inconclusive [inhibitor, single point]"}, {"smiles": "CCN1CCN(CC(=O)c2ccc(C)cc2)CC1", "activity, negative = inhibition": "inactive: 0.477%"}, {"smiles": "Nc1ccccc1Sc1nc2ccccc2[nH]1", "Potency": "active: 12.6 µM"}, {"smiles": "CCOc1ccc(CNC(=S)Nc2ccccc2)cc1Cl", "Potency": "active: 5.62 µM"}, {"smiles": "Cc1cc(C(=O)CN2C(=O)NC(CC(C)C)C2=O)c(C)n1-c1ccccc1F", "note": "(stereo not given)", "Potency": "inconclusive [inhibitor, single point]"}, {"smiles": "CCOC(=O)C1=C(CC)OC(N)=C(C#N)C1c1ccc(F)cc1F", "note": "(stereo not given)", "Potency": "inconclusive [activator, single point]"}, {"smiles": "Cc1c(Nc2cc(Cl)c3nonc3c2[N+](=O)[O-])c(=O)n(-c2ccccc2)n1C", "Potency": "active: 3.98 µM"}, {"smiles": "CCOC(=O)C(C(C)=O)c1c(Br)c(O)c(O)c2c(C(=O)c3ccc(C)cc3)coc12", "note": "(stereo not given)", "Potency": "active: 15.8 µM"}, {"smiles": "Cc1ccc(CN2CCN(/N=C/c3ccc(C(=O)O)cc3)CC2)cc1", "activity, negative = inhibition": "inactive: 6.02%"}, {"smiles": "CCCCn1c(C(C)NC(=O)c2cccs2)nc2ccccc21", "note": "(stereo not given)", "Potency": "inconclusive [inhibitor, single point]"}, {"smiles": "Cc1cc(C)c2c(N)c(C(=O)Nc3ncc(C)s3)sc2n1", "Potency": "active: 2.82 µM"}, {"smiles": "N#Cc1ccc(C(=O)Nc2nnc(-c3cccs3)o2)cc1", "Potency": "active: 1 µM"}, {"smiles": "Cn1c(=O)cc(SCC(=O)NCC2CCCO2)c2ccc(Cl)cc21", "note": "(stereo not given)", "Potency": "inconclusive [activator, single point]"}, {"smiles": "O=[N+]([O-])c1nn(-c2ccc(Cl)cc2)n(O)c1=NCc1ccncc1", "Potency": "inconclusive [activator, single point]"}, {"smiles": "CCC(C)[C@H]1CNC(=S)N1CCC12CC3CC(CC(C3)C1)C2", "note": "(stereo not given in full)", "Potency": "active: 2.82 µM"}, {"smiles": "CCC1=C[C@@H]2CN(C1)Cc1c([nH]c3ccccc13)[C@@](C(=O)OC)(c1cc3c(cc1OC)N(C)[C@@H]1[C@@](O)(C(=O)OC)[C@H](OC(C)=O)[C@]4(CC)C=CCN5CC[C@]31[C@@H]54)C2", "activity, negative = inhibition": "inactive: -7.54%"}, {"smiles": "O=C(NC(=S)N1CCN(c2ccccc2)CC1)c1c(F)cccc1F", "Potency": "active: 1.41 µM"}, {"smiles": "COc1cc(-c2nnc(SCC(=O)c3ccccc3)o2)cc(OC)c1OC", "activity, negative = inhibition": "inactive: -0.707%"}, {"smiles": "Cn1c(=O)c2c(nc(NCCNC(=O)c3ccco3)n2Cc2ccccc2)n(C)c1=O", "Potency": "inconclusive [inhibitor, single point]"}, {"smiles": "CC(=O)Oc1ccc(C2(C)CC(C)(C)NC(=S)N2C)c(OC(C)=O)c1", "note": "(stereo not given)", "Potency": "inconclusive [inhibitor, single point]"}, {"smiles": "COc1ccc(-c2noc(CCCC(=O)NC3CCCCC3)n2)cc1", "Potency": "active: 15.8 µM"}, {"smiles": "Cc1ccc([N+](=O)[O-])cc1NC(=O)C(Sc1ccccc1)c1ccccc1", "note": "(stereo not given)", "Potency": "inconclusive [activator, single point]"}, {"smiles": "COC(=O)CC/C(O)=C1\\C(=O)CC(C)(C)CC1=NCc1nc2ccccc2[nH]1", "activity, negative = inhibition": "inactive: -4.13%"}, {"smiles": "O=C(/C=C/c1ccccc1)CC(=O)c1ccccc1O", "Potency": "active: 11.2 µM"}, {"smiles": "C/C(CCN1CCCCc2nc(C)c(C)cc21)=N\\O[C@@H](C)CN1CCCCc2nc(C)c(C)cc21", "Potency": "inactive"}, {"smiles": "CS(=O)(=O)N1CCC(C(=O)Nc2cc(C(F)(F)F)ccc2Cl)CC1", "activity, negative = inhibition": "inactive: -1.56%"}, {"smiles": "CCN1C(=O)C(=Cc2cccc(OC)c2Oc2ccc([N+](=O)[O-])cc2[N+](=O)[O-])SC1=S", "Potency": "inconclusive [inhibitor, single point]"}, {"smiles": "c1ccc(-c2nc3cc4ccccc4cc3[nH]2)nc1", "Potency": "active: 3.16 µM"}, {"smiles": "CCc1ccc2oc(-c3cc(N)cc(C)c3O)nc2c1", "Potency": "active: 8.91 µM"}, {"smiles": "COc1cccc(/C=N/Nc2cc(-n3nc(C)cc3-c3ccccc3)ncn2)c1O", "Potency": "active: 1 µM"}, {"smiles": "CCN(CC)S(=O)(=O)c1ccc(C)c(NC(=O)Cn2c(=O)cnc3ccccc32)c1", "Potency": "inconclusive [inhibitor, partial curve, poor fit]"}, {"smiles": "O=C(/C=C/c1ccc(Cl)cc1Cl)N1CCN(c2ccc([N+](=O)[O-])c(N3CCOCC3)c2)CC1", "Potency": "inconclusive [activator, single point]"}, {"smiles": "Brc1ccc(OCCCOc2cccc3cccnc23)cc1", "Potency": "inconclusive [inhibitor, single point]"}, {"smiles": "CN=c1scc(-c2ccc(Br)cc2)n1C", "Potency": "inconclusive [inhibitor, full curve]"}, {"smiles": "COc1ccc(C(=O)CCC(=O)N2CCN(c3ccc([N+](=O)[O-])cc3)CC2)cc1", "activity, negative = inhibition": "inactive: 1.34%"}, {"smiles": "Cc1nc2nc(-c3ccccc3)cn2nc1C", "Potency": "inconclusive [inhibitor, single point]"}, {"smiles": "CCc1nc(SCc2ccc(OCC(C)C)cc2)n[nH]1", "Potency": "active: 15.8 µM"}, {"smiles": "Cc1c(N2C(=O)C(=O)/C(=C(/O)c3ccc(Cl)cc3)C2c2ccccc2)c(=O)n(-c2ccccc2)n1C", "note": "(stereo not given)", "Potency": "inconclusive [activator, single point]"}, {"smiles": "CCNC(=S)N=Nc1c(O)[nH]c2ccc([N+](=O)[O-])cc12", "Potency": "active: 11.2 µM"}, {"smiles": "CC1(C)Cc2c(c(-c3ccco3)nc3sc4c(NCCN5CCOCC5)ncnc4c23)CO1", "Potency": "inconclusive [inhibitor, single point]"}, {"smiles": "CCC(=O)NC(Nc1c(C)n(C)n(-c2ccccc2)c1=O)C(Cl)(Cl)Cl", "note": "(stereo not given)", "activity, negative = inhibition": "inactive: 0.467%"}, {"smiles": "COc1cccc(/C=N/NC(=O)CNC(=O)COc2cccc(C)c2)c1O", "Potency": "active: 2.24 µM"}, {"smiles": "Cc1cccc2cc(CN(Cc3ccco3)C(=O)c3ccco3)c(=O)[nH]c12", "activity, negative = inhibition": "inactive: 10.2%"}, {"smiles": "CC1(C)CC2(C)Nc3ccccc3N2C(=S)N1", "note": "(stereo not given)", "Potency": "inconclusive [inhibitor, single point]"}, {"smiles": "CC(C)(C)NC(=S)NNC(=O)c1ccc2ncccc2c1", "Potency": "inconclusive [inhibitor, single point]"}, {"smiles": "O=C(NNC(=S)NC1CCCCC1)c1cccc(S(=O)(=O)Nc2ccccc2Cl)c1", "Potency": "inconclusive [inhibitor, single point]"}, {"smiles": "O=C(NC(=S)NN1CCCCC1c1cccnc1)c1ccc(Cl)cc1Cl", "note": "(stereo not given)", "Potency": "active: 4.47 µM"}, {"smiles": "Cc1n[nH]c(C)c1S(=O)(=O)N1CCCC(C(=O)NCc2ccccc2Cl)C1", "note": "(stereo not given)", "Potency": "inconclusive [inhibitor, single point]"}, {"smiles": "COc1ccc(S(=O)(=O)N2CCOC2CNC(=O)C(=O)NCCCc2ccccc2)cc1", "note": "(stereo not given)", "Potency": "inconclusive [inhibitor, single point]"}, {"smiles": "COc1ccc(NS(=O)(=O)c2ccc3oc(Nc4ccc5c(c4)OCCO5)nc3c2)cc1", "activity, negative = inhibition": "inactive: 26.4%"}, {"smiles": "Cc1nn2c(NCc3ccccn3)cc(C(C)(C)C)nc2c1-c1ccccc1", "Potency": "active: 2.24 µM"}, {"smiles": "O=S(=O)(NCCc1nnc2ccc(SCc3cccnc3)nn12)c1ccccc1", "activity, negative = inhibition": "inactive: -4.32%"}, {"smiles": "CCOC(=O)c1c(Nc2ccc(Cl)cc2)sc(/C=C2\\C=Nc3ccccc32)c1O", "activity, negative = inhibition": "inactive: 0.92%"}, {"smiles": "Cc1cc(Nc2ccccc2)n(C(=O)c2ccccc2)n1", "Potency": "inconclusive [inhibitor, single point]"}, {"smiles": "O=C(c1ccccc1)[C@@H]1[C@@H]2C(=O)N(c3ccc(F)cc3)C(=O)[C@@H]2C2CCCN21", "note": "(stereo not given in full)", "Potency": "inconclusive [inhibitor, single point]"}, {"smiles": "O=C(/C=C/c1ccc(O)c(O)c1)c1ccccc1O", "Potency": "inconclusive [inhibitor, single point]"}]}]}
